Assay results taken from publication PMC5584213.
Results are given in words; binding and its absence hold for the method and conditions named. For some assays here: Binding seen in cells or lysates may run through a third protein. Some binding calls cover weakened binding; strength is not graded here. Where a sequence is shown, tags or fusion partners need not be part of it. Values belong to the binder of their own block, whether it stands above or below them.

Columns and labels:
[1] = molecular target: T1, cylindromatosis (CYLD), full-length (UniProt Q9NQC7); assay: pull-down; GST pull-down from lysates of co-transfected HEK293T cells; lysates incubated with glutathione-sepharose 4B beads at 4 °C overnight; GST-tagged CYLD as bait; precipitates immunoblotted with anti-Flag, anti-GFP and anti-GST antibodies
T1 sequence: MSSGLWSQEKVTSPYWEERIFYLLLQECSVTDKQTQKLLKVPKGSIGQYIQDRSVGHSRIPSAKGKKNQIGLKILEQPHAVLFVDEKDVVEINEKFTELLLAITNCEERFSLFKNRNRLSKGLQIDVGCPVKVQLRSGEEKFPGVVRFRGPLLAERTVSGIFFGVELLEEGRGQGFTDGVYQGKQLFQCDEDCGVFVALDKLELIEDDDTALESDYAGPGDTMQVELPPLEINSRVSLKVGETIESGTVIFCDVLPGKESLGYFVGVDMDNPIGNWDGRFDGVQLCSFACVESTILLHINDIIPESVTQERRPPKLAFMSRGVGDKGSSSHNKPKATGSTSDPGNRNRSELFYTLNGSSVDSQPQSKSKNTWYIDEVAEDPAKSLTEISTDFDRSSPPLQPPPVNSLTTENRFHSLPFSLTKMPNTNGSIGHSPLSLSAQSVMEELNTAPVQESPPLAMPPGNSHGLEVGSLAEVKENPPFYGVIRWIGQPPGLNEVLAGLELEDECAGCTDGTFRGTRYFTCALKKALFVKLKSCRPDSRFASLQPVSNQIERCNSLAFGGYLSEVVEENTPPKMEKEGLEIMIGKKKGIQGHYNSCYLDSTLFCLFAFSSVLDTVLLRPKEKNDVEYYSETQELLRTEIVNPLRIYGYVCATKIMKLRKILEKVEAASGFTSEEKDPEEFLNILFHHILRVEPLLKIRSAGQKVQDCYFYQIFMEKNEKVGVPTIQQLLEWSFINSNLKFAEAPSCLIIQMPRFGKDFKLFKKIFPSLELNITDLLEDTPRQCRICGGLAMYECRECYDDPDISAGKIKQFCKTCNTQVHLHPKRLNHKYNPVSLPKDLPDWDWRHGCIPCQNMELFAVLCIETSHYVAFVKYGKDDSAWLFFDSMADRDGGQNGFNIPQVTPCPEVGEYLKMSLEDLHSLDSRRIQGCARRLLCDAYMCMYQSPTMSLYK

GST-CYLD (1-555) = GST-CYLD (1-555) (UniProt Q9NQC7); assay: native gel or EMSA; lysates of transfected HEK293T cells on 10% native PAGE at 4 °C, then denatured, transferred and blotted with anti-GST antibody; endogenous CYLD present

B1: cylindromatosis (CYLD), full-length (enzyme, UniProt Q9NQC7-2 1-953)
chain: T1 sequence
binding [1]: binds

B2: GFP-CYLD (1-555) (domain or fragment, UniProt Q9NQC7-2 1-555)
chain: MSSGLWSQEKVTSPYWEERIFYLLLQECSVTDKQTQKLLKVPKGSIGQYIQDRSVGHSRIPSAKGKKNQIGLKILEQPHAVLFVDEKDVVEINEKFTELLLAITNCEERFSLFKNRNRLSKGLQIDVGCPVKVQLRSGEEKFPGVVRFRGPLLAERTVSGIFFGVELLEEGRGQGFTDGVYQGKQLFQCDEDCGVFVALDKLELIEDDDTALESDYAGPGDTMQVELPPLEINSRVSLKVGETIESGTVIFCDVLPGKESLGYFVGVDMDNPIGNWDGRFDGVQLCSFACVESTILLHINDIIPESVTQERRPPKLAFMSRGVGDKGSSSHNKPKATGSTSDPGNRNRSELFYTLNGSSVDSQPQSKSKNTWYIDEVAEDPAKSLTEISTDFDRSSPPLQPPPVNSLTTENRFHSLPFSLTKMPNTNGSIGHSPLSLSAQSVMEELNTAPVQESPPLAMPPGNSHGLEVGSLAEVKENPPFYGVIRWIGQPPGLNEVLAGLELEDECAGCTDGTFRGTRYFTCALKKALFVKLKSCRPDSRFASLQPVSNQIERC
binding [1]: no binding

Now from value to binder:

binding (GST-CYLD (1-555)): no binding
B3: GST-CYLD (1-555) (domain or fragment, UniProt Q9NQC7-2 1-555)
chain: B2 chain

binding [1]: no binding
B4: GFP-CYLD^ΔB-box (Δ786-837) (enzyme, UniProt Q9NQC7-2)
chain: MSSGLWSQEKVTSPYWEERIFYLLLQECSVTDKQTQKLLKVPKGSIGQYIQDRSVGHSRIPSAKGKKNQIGLKILEQPHAVLFVDEKDVVEINEKFTELLLAITNCEERFSLFKNRNRLSKGLQIDVGCPVKVQLRSGEEKFPGVVRFRGPLLAERTVSGIFFGVELLEEGRGQGFTDGVYQGKQLFQCDEDCGVFVALDKLELIEDDDTALESDYAGPGDTMQVELPPLEINSRVSLKVGETIESGTVIFCDVLPGKESLGYFVGVDMDNPIGNWDGRFDGVQLCSFACVESTILLHINDIIPESVTQERRPPKLAFMSRGVGDKGSSSHNKPKATGSTSDPGNRNRSELFYTLNGSSVDSQPQSKSKNTWYIDEVAEDPAKSLTEISTDFDRSSPPLQPPPVNSLTTENRFHSLPFSLTKMPNTNGSIGHSPLSLSAQSVMEELNTAPVQESPPLAMPPGNSHGLEVGSLAEVKENPPFYGVIRWIGQPPGLNEVLAGLELEDECAGCTDGTFRGTRYFTCALKKALFVKLKSCRPDSRFASLQPVSNQIERCNSLAFGGYLSEVVEENTPPKMEKEGLEIMIGKKKGIQGHYNSCYLDSTLFCLFAFSSVLDTVLLRPKEKNDVEYYSETQELLRTEIVNPLRIYGYVCATKIMKLRKILEKVEAASGFTSEEKDPEEFLNILFHHILRVEPLLKIRSAGQKVQDCYFYQIFMEKNEKVGVPTIQQLLEWSFINSNLKFAEAPSCLIIQMPRFGKDFKLFKKIFPSLELNITDLLEDTPRQCPKDLPDWDWRHGCIPCQNMELFAVLCIETSHYVAFVKYGKDDSAWLFFDSMADRDGGQNGFNIPQVTPCPEVGEYLKMSLEDLHSLDSRRIQGCARRLLCDAYMCMYQSPTMSLYK

binding [1]: binds
B5: GFP-CYLD (556-953) (domain or fragment, UniProt Q9NQC7-2 556-953)
chain: NSLAFGGYLSEVVEENTPPKMEKEGLEIMIGKKKGIQGHYNSCYLDSTLFCLFAFSSVLDTVLLRPKEKNDVEYYSETQELLRTEIVNPLRIYGYVCATKIMKLRKILEKVEAASGFTSEEKDPEEFLNILFHHILRVEPLLKIRSAGQKVQDCYFYQIFMEKNEKVGVPTIQQLLEWSFINSNLKFAEAPSCLIIQMPRFGKDFKLFKKIFPSLELNITDLLEDTPRQCRICGGLAMYECRECYDDPDISAGKIKQFCKTCNTQVHLHPKRLNHKYNPVSLPKDLPDWDWRHGCIPCQNMELFAVLCIETSHYVAFVKYGKDDSAWLFFDSMADRDGGQNGFNIPQVTPCPEVGEYLKMSLEDLHSLDSRRIQGCARRLLCDAYMCMYQSPTMSLYK
